Read counts are not given, so values of variants with three or more changes are uncertain.
B1: LINE1-mini (parent)
chain: GGCAGAGCUCAACACAGCGUGGCAAAGUGGCUGUGGCUAGACUGCC

Variants of: B1
Experiment: self-cleavage, relative activity (ratio to wild type); higher = more cleavage; in vitro, sequencing; the parent is a self-cleaving ribozyme
Work on U20C A24G C45G yielded a self-cleavage of 0.8. G21A C31A A41C gave a self-cleavage of 0.04. For G21U G27C C37A A41U, the self-cleavage was 0.11. In the case of U20G A25U G40U, the self-cleavage is reported as 0.17. G21U A24U A39U G40C gave a self-cleavage of 0.04. Work on U20C G21A U38A C46A yielded a self-cleavage of 0.55. G22C G30A C45A gave a self-cleavage of 0.19. For U20G G29A U43C, the self-cleavage was 0.02. G21U G22A G33A C46U gave a self-cleavage of 0.09. G22U A24C C42A showed a self-cleavage of 0.17. For G21U G22A A24G U28G G29U U38C, the self-cleavage was 0.35. G21C G27U U32C C37A C45U showed a self-cleavage of 0.1. For U20C G21C U28C, the self-cleavage was 0.18. U20G U32C C37G showed a self-cleavage of 0.03. For G21U C42G C46U, the self-cleavage was 0.02. Work on G21A U38C C45U yielded a self-cleavage of 2.8. With G21C G30A A39U the self-cleavage was 1.61. G22A U38G A39U U43C showed a self-cleavage of 0.03. Variant G21U G30U C46U has a self-cleavage of 1.65. G21U A25C U38G C45A showed a self-cleavage of 0.02. In the case of G22A U32A G35C C45A, the self-cleavage is reported as 0.04. Work on G22C A25G G44A yielded a self-cleavage of 0.03. G22A C31U A41C G44A showed a self-cleavage of 0.02. U20A U32C U38A gave a self-cleavage of 0.09. Variant G21A A25C A41U has a self-cleavage of 0.86. Work on G22C C31A G44U yielded a self-cleavage of 0.05. Variant G21A G36C C45A has a self-cleavage of 0.07. G22A G27C U34A showed a self-cleavage of 0.1. With U20C G33U A39U the self-cleavage was 0.08. G21A G30C G40C gave a self-cleavage of 0.26. G21U G22U U32G showed a self-cleavage of 0.26. G22C A24G U32A G35A showed a self-cleavage of 0.05. G21U A24C A26U showed a self-cleavage of 0.41. U20G G30U A41U C42U gave a self-cleavage of 0.11. In the case of G21C C23U C46G, the self-cleavage is reported as 0.51. Variant G21A A25C G35A has a self-cleavage of 0.19. G21C U28C U38G showed a self-cleavage of 0.01. G21C U28A G33U C46A showed a self-cleavage of 1.72. For G21U G27U G29U G36C, the self-cleavage was 0.03. For U20C G21C A24U A39C, the self-cleavage was 0. Work on G21U A25U C31G yielded a self-cleavage of 0.05. In the case of U20G G22A U28G G44U, the self-cleavage is reported as 0.1. G21A G35U C45U showed a self-cleavage of 0.12. With U20G G33U G44U the self-cleavage was 0.03. G21U A24C C46U showed a self-cleavage of 1.24. G22A C23A A41U showed a self-cleavage of 0.24. In the case of G21C C23U G27A C31U U34C, the self-cleavage is reported as 0.06. For G21U A26U U32A, the self-cleavage was 0.06. For G21C G27U A41G, the self-cleavage was 0.91. For G21U U34C G35U, the self-cleavage was 0.03. With G21A G40C A41U C45A the self-cleavage was 0.02. For G22U A41G C42A U43G, the self-cleavage was 0.02. G22U C23A A39C showed a self-cleavage of 0.04. For U20C A25U U43A, the self-cleavage was 0.05. G21U G22A G36U showed a self-cleavage of 0.05. Variant U20C C45G C46G has a self-cleavage of 0.05. In the case of G21U G36U C45U, the self-cleavage is reported as 0.08. For U20C A26C G27U G30A U38C, the self-cleavage was 0.42. G21C C23U G29A U32A G36U C37U showed a self-cleavage of 0.03. Work on G22C A24U G27A yielded a self-cleavage of 0.38. With U20G G22A G44A the self-cleavage was 0.28. In the case of G21U A24C G44U, the self-cleavage is reported as 0.16. Work on U20G U32G G36A G44C C45G yielded a self-cleavage of 0.03. G22C G27U C31G A41U gave a self-cleavage of 0.14. With G21A A25G G35U the self-cleavage was 0.06. For G21A A25G G35A, the self-cleavage was 0.09. U20G G22U G33C gave a self-cleavage of 0.03. G21A A26G A41U gave a self-cleavage of 1.08. G22A G36U U43A C45G showed a self-cleavage of 0.05. Work on G22A G27U C42U yielded a self-cleavage of 0.26. U20C G21C C42A showed a self-cleavage of 0.03. With G22A A24C C45G the self-cleavage was 0.52. For G22A G27A G44U, the self-cleavage was 0.22. Work on G22A G27U U43A G44U yielded a self-cleavage of 0.09. G22U C23A U34A gave a self-cleavage of 0.75. For G22A G29C G30U, the self-cleavage was 0.19. For G21A G22C G27C G36U G44C, the self-cleavage was 2.63. U20A G30A G44U gave a self-cleavage of 0.09. In the case of G22C U34A G36U, the self-cleavage is reported as 0. G22U A26U G27C showed a self-cleavage of 0.47. In the case of G22A C23A A24G U38C, the self-cleavage is reported as 1.11. Work on G22A G30C C37A U38C yielded a self-cleavage of 0.04. U20A G29U G33C showed a self-cleavage of 0.03. For U20G G29U G35C, the self-cleavage was 0.04. G22C U34C U43A showed a self-cleavage of 0.02. For G22C C45A C46U, the self-cleavage was 0.13. For U20G G36C C37G A41U, the self-cleavage was 0.09. Variant U20C A25C G35A has a self-cleavage of 0.04. U20G U32A C42G gave a self-cleavage of 0.04. U20G G27U C31G G44C gave a self-cleavage of 0.01. In the case of G21A G30A G33A, the self-cleavage is reported as 0.1. G22A U43C C45G gave a self-cleavage of 0.02. For G21C U28A G29U, the self-cleavage was 0.1. Work on G22A U28A U32A A39U yielded a self-cleavage of 0.05. Variant G21C G29U C31U U34A G40C U43G has a self-cleavage of 0.01. With G21U U38G C45U the self-cleavage was 0.05. In the case of G22A G36A C37A, the self-cleavage is reported as 0.02. With G21C G36U C45A the self-cleavage was 0.03. With G21C C31G C45A the self-cleavage was 0.07. G21U C23U U28C C37G gave a self-cleavage of 0.01. With U20G G22A G35U A39C C45G the self-cleavage was 0.06. In the case of U20C G36U A39G, the self-cleavage is reported as 0.01. With G21U A26G G27C G36C the self-cleavage was 0.05. U20C G36C A41C showed a self-cleavage of 0.02. Variant U20C A26C G27U C37U has a self-cleavage of 0. Variant G22C U28A C31G G33A has a self-cleavage of 0.02. U20G G27U U34A C46U showed a self-cleavage of 0.03. Work on G22C U28A C45A yielded a self-cleavage of 0.88. Work on U20G A26G U43A C46U yielded a self-cleavage of 0.01. U20G A25U G30A U32G G40U showed a self-cleavage of 0.03. In the case of G22C G33C G36U, the self-cleavage is reported as 0.01. Work on G21A G29U U34G yielded a self-cleavage of 0.49. With G21U G27U C37A the self-cleavage was 0.02. With U20A U28C C37U the self-cleavage was 0. G22U A24C G40A gave a self-cleavage of 0.06. G21A A26U G27A C37G gave a self-cleavage of 0.01. U20A G36U A41C gave a self-cleavage of 0.04. Variant U20C A25C C37U G40U has a self-cleavage of 0.25. G21U G22C A26G U38A C42G showed a self-cleavage of 0.03. Variant G21U G29C C46G has a self-cleavage of 0.41. Variant U20G G29U G40C C42U has a self-cleavage of 0.07. U20G C23U A25G G33C U34A showed a self-cleavage of 0.03. In the case of G21U U34C G40C, the self-cleavage is reported as 0.02. For G22A U28C G30C, the self-cleavage was 1.6. G22C G30A A39C showed a self-cleavage of 0.46. G21A C23G G29A A41G showed a self-cleavage of 0.7. G22C C23A A39U showed a self-cleavage of 0.44. With G21A U32G U34A C42U the self-cleavage was 0.03. Work on U20G C23U G33C yielded a self-cleavage of 0.06. G21C C23G U32C gave a self-cleavage of 0.21. G22C G36U C45G gave a self-cleavage of 0.02. In the case of G21A G27A U32A G35U, the self-cleavage is reported as 0.06. G22A G35U U38C gave a self-cleavage of 0.11. Variant G21U G22U C31U U43G has a self-cleavage of 0. Work on G21A U34C C37A yielded a self-cleavage of 0.03. Work on G22A C31A G33C yielded a self-cleavage of 0.13. For G21U G22U C31A G36A G44A, the self-cleavage was 0.35. For U20C U38A C46U, the self-cleavage was 0.21. G21A A25G G27C C42G C46G gave a self-cleavage of 0.26. With U20C G21U G30C the self-cleavage was 0.32. G21A A24U U43A showed a self-cleavage of 0.06. In the case of G21U C31A C46G, the self-cleavage is reported as 0.04. For U20C G27U G35C, the self-cleavage was 0.08. For G21U A39G C42U, the self-cleavage was 0.18. U20G G36A A39U C45A gave a self-cleavage of 0.01. G22C C31A U43G showed a self-cleavage of 0.04. Variant G22C A24C C31A G36C has a self-cleavage of 0.06. Work on U20C G40U G44U C46A yielded a self-cleavage of 0.01. Work on G21U A25U C42G yielded a self-cleavage of 0.08. G21C G36A C37U C46G gave a self-cleavage of 0.12. Variant G21U G36U A39G G44C has a self-cleavage of 0.03. In the case of G21A A26C G44U, the self-cleavage is reported as 0.45. Work on G21U C37A A39U C42U yielded a self-cleavage of 0.08. G22U A24G U28C showed a self-cleavage of 0.18. With U20C G30U C31U C45A the self-cleavage was 0.22. Variant G21C C23A G35C G44C has a self-cleavage of 0.04. G21U G27C C31A showed a self-cleavage of 0.13. Variant U20C G36U G44A has a self-cleavage of 0.02. Work on G22U A25U A39U yielded a self-cleavage of 1.37. Work on G21A G30U A39U yielded a self-cleavage of 0.96. Variant G22A A24U G30U A39U G40C U43A C46A has a self-cleavage of 0.05. In the case of G21U G36C C46A, the self-cleavage is reported as 0.08. For G22A A39G C42A, the self-cleavage was 0.03. Variant U20A G33C G44U has a self-cleavage of 0.01. G22A A25C A26G A41U showed a self-cleavage of 0.57. With U20G G22C C37A the self-cleavage was 0. In the case of G22U A26U G27A G29U G44U, the self-cleavage is reported as 0.19.

Reference: the RNAGym collection of RNA variant scans (doi:10.7554/elife.90254)
